# Assay results published in publication PMC6919601, “Identification of Plasmodium dipeptidyl aminopeptidase allosteric inhibitors by high throughput screening” (PLoS ONE, 2019).
# “And” between values parts separate entries of the source, which are not always exact repeats. Identical values can stand only once. Hit rate of the full screen: of about 110,000 compounds, about 230 (0.21%) showed an effect of 50% or more. The list shows a part of the results.
# Molecular target: DPAP1 (Plasmodium falciparum, UniProt Q8IIJ9)
# Assay: primary screen, percent inhibition; read by cleavage of a fluorogenic dipeptide substrate; higher = more effect of the substance
# Set-up: species or system P. falciparum D10 trophozoite lysates; single well
# 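Note: 30 min substrate incubation versus DMSO and 10 µM JCP410 controls.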
# Sequence of DPAP1 (Q8IIJ9 whole entry, looked up): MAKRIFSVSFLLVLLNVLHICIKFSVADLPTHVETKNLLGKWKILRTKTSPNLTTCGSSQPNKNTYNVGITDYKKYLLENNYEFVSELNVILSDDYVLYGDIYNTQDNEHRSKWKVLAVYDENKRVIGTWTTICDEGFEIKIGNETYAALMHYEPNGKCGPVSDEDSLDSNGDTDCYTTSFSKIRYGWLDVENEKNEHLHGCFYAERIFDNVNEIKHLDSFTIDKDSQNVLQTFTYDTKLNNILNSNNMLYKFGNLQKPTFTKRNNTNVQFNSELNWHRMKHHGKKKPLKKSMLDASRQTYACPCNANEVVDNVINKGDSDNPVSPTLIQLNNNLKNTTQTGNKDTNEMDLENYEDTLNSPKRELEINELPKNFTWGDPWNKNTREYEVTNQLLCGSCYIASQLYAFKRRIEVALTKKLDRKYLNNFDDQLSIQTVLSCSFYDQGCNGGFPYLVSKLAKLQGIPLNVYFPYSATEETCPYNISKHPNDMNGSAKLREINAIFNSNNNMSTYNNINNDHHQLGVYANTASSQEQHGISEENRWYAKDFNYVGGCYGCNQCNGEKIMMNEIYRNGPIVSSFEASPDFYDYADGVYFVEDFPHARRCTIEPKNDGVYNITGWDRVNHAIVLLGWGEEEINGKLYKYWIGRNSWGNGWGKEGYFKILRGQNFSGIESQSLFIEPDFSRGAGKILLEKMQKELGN
row,SMILES,% Inhibition @ 10 uM
1,CCOC(=O)c1conc1-c1ccc(F)cc1,-5.94%
2,COc1ccc(CCNC(=O)Cn2cnc3c2c(=O)n(C)c(=O)n3C)cc1OC,1.58%
3,Cc1cc(C)c2nc(N3CCC(C(=O)NCC4CCCO4)CC3)sc2c1 (centres unmarked),0.137%
4,CCOC(=O)N1CCN(C(=O)c2ccc(CS(=O)c3cccc(Cl)c3)o2)CC1 (centres unmarked),-1.57%
5,COc1ccc(-n2nc3c(N4CCC(C(=O)NCc5ccc(C)o5)CC4)nnc(C)c3c2C)cc1,11.7%
6,Cn1c(C(O)C(O)c2ccccc2)nc2ccccc21 (centres unmarked),-1.76%
7,O=C(c1ccc(Cl)cc1)N1CCN(c2ccc(Cl)cc2)CC1,-3.97%
8,CCCN(CCO)Cc1ccc2c(c1)c1ccccc1n2CC,-6%
9,O=C1CCCc2oc3ccc(NS(=O)(=O)c4ccc5c6c(cccc46)C(=O)N5)cc3c21,3.24% and -3.19%
10,CC(C)NCC(O)COCCC12CC3CC(CC(C3)C1)C2 (centres unmarked),-5.78%
11,CC(NC(=O)c1ccco1)c1ccccc1 (centres unmarked),-3.03%
12,Cc1nn(CCCC(=O)NC2CCCC(C)C2C)c(=O)c2nccn12 (centres unmarked),6.31%
13,O=C(Nc1ccc(I)cc1)[C@@H]1C2C=CC(C2)[C@@H]1C(=O)O (some centres unmarked),0.716%
14,CCOc1ccc(C(=O)N(Cc2ccccc2Cl)C2CCS(=O)(=O)C2)cc1 (centres unmarked),3.72%
15,CCOC(=O)c1c(NC(=O)c2ccccc2)sc2c1CCCC2=O,2.94%
16,COc1ccc(CCNC(=O)CNS(=O)(=O)c2ccc(Cl)cc2)cc1,-4.62%
17,Cc1cc(NCCCCO)n2c(nc3ccccc32)c1C#N,23.7%
18,O=C(NCc1ccccc1)c1ccc(-c2ccccc2)cc1,3.82%
19,CCOC(=O)CCc1n[nH]c(=O)[nH]c1=O,4.15%
20,CC(=O)c1cc(-c2ccc(F)cc2)n(CCC(=O)N2CC(C)CC(C)C2)c1C (centres unmarked),-3.87%
21,COc1cccc(-c2csc(NC(=O)c3ccc(Cl)cc3)n2)c1,4.44%
22,O=C(NCCCn1ccnc1)c1cc(-c2cccc(Br)c2)nc2ccccc12,-4.76%

row,SMILES,% Inhibition @ 10 uM
1,O=C1NC(=S)S/C1=C\c1ccc(-c2ccc(Cl)c(Cl)c2)o1,5.61%
2,COc1ccc(Cl)cc1NC(=O)c1sc2nc(-c3ccncc3)ccc2c1N,-2.8%
3,Cc1nc2ccc(F)cc2c2c1CCN2c1ccccc1,-4.76%
4,Cc1cc(C(=O)Nc2sc(C)c(-c3ccc(F)cc3)c2C(N)=O)no1,-1.07%
5,CCOCCCNCc1ccc(Cl)cc1,0.387%
6,Cc1ccc(C2C3=C(O)CC(C)(C)CC3=NC3=C2C(=O)CC(C)(C)C3)cc1 (centres unmarked),-2.8%
7,CC(=O)c1ccc(NC(=O)Cn2nc(C)cc2C)cc1,2.17%
8,COc1ccc(OC)c(C2c3cc(OC)c(OC)cc3CCN2C(C)=O)c1 (centres unmarked),-0.693%
9,C=CCSc1nc(=O)c2c(n1C)NC(=O)CC2c1ccccc1OC(C)C (centres unmarked),2.25%
10,COCCCN1C(=O)C(O)=C(C(=O)c2ccc(C)cc2)C1c1cccc(OC)c1 (centres unmarked),-6.2%
11,O=C(CC(c1ccccc1)c1ccccc1)N1CCN(Cc2ccc3c(c2)OCO3)CC1,-4.03% and 3.56%
12,CCOc1cc(C2C(C#N)=C(N)Oc3[nH]nc(CC)c32)ccc1OC(F)F (centres unmarked),0.851%
13,CC(C)c1ccc(CN2CCCC(CO)C2)cc1 (centres unmarked),1.04%
14,COc1ccccc1CNC(=O)CCCNC(=O)Cn1cnc2sc3c(c2c1=O)CCCC3,0.231%
15,O=C(Nc1ccc2c(c1)OCCO2)c1ccc(OC(F)F)cc1,-2.85%
16,CCOC(=O)C1=C(CNCCc2ccccc2)NC(=O)NC1c1ccc(C)cc1 (centres unmarked),2.39%
17,CCC(=O)NS(=O)(=O)c1cccnc1Nc1ccc(Cl)c(C(F)(F)F)c1,6.98%
18,O=C(CN(c1ccccc1)S(=O)(=O)c1ccccc1)N1CCOCC1,-2.77%
19,CC(C)N1CCC2(CC1)N=C(c1ccccc1)C(=S)N2,5.46%
20,O=C1CC(c2ccccc2Cl)c2cc3c(cc2N1)OCO3 (centres unmarked),-5.27%
21,O=C(CN1C(=O)S/C(=C/c2cccc3ccccc23)C1=O)N1CCCC1,-1.27%
22,COC(=O)c1ccc(NC(=O)/C=C/c2ccccc2)cc1,-5.51%

row,SMILES,% Inhibition @ 10 uM
1,COc1ccc(C2CC(=O)C(C)C(c3ccc(OC)cc3)N2)cc1 (centres unmarked),5.16%
2,O=C(NCC1CCCO1)c1ccc(CS(=O)(=O)c2cccc(C(F)(F)F)c2)o1 (centres unmarked),-7.14%
3,CSc1nc2c(c(=O)n1CC1CCCC1)C1(CCCCC1)Cc1ccccc1-2,-3.77%
4,CC(C)c1nnc2sc(NC(=O)C3CCCCC3)nn12,-2.17%
5,CCOc1ccc2c(C(F)(F)F)cc(=O)oc2c1,-2.21%
6,Cc1c(C(=O)N2CCCC2)oc2c1-c1nn(CC(=O)N3CCc4ccccc4C3)cc1CC2,-4.37%
7,O=C(NC12C[C@H]3C[C@@H](C1)C[C@@H](C2)C3)N1CCN(C2CCCCC2)CC1,-0.551%
8,Cc1cccc(C)c1NC(=O)c1sc(Cl)nc1C,4.31%
9,CCOc1ccc(CN2CCN(c3ccc(OC)cc3)CC2)cc1,2.9%
10,CCCCNC(=O)c1cnn2c(C(F)F)cc(-c3ccc(C)cc3)nc12,-4.35%
11,COc1ccc(NC(=O)c2ccc(OC)cc2)cc1,0.035%
12,CCOc1ccc2oc(=O)cc(CN3CCN(C(=O)c4ccco4)CC3)c2c1,-7.24%
13,CN(C)CCOC(c1ccccc1)C1CC=CCC1 (centres unmarked),-1.6%
14,COc1ccc(CN2CCN(C(=O)CC(C)C)CC2)cc1OC,0.214% and -3.19%
15,Cc1sc2ncnc(NCCc3ccccc3)c2c1C,-1.68%
16,CCN(CCNS(=O)(=O)c1csc(C(N)=O)c1)Cc1ccccc1,-1.59%
17,O=C1N=C(N2CCCC2)S/C1=C\c1ccccc1O,5.3%
18,COCCNC(=O)CSc1[nH]c(-c2ccc(OC)c(OC)c2)nc1-c1ccc(F)cc1,1.85%
19,CN1CCN(C(=O)NC23CC4CC(CC(C4)C2)C3)CC1,2.92%
20,CCOc1ccccc1N1CCN(Cc2ccc(OC(F)(F)F)cc2)CC1,3.24%
21,CCOC(=O)c1cc(CC)sc1NC(=O)c1cccc(Br)c1,-2.26%
